Measurements taken from the supplement of paper PMC9446081.
The campaign covered roughly 39,000 compounds. About 220 (0.56%) showed activity. This is one part of the list.

test system: Escherichia coli K-12 BW25113; assay: relative growth (OD600 normalised to plate interquartile mean) (fraction); higher = less growth inhibition, active = 0.2 or less; settings: 50 µM; LB; incubation time: overnight (16-24 h)
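Also: static incubation at 37 °C against the wild-type strain, values averaged over two biological replicates.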

Row | Compound | relative growth
1 | O=C(C[C@H]1C=C[C@@H](NS(=O)(=O)c2ccccc2)[C@H](CO)O1)NCc1ccncn1 | inactive: 1
2 | Cc1ccc2nc(-c3ccco3)[nH]c2c1 | inactive: 0.899
3 | CO[C@@H](CN(C)C(=O)c1ccc2c(c1)OCO2)[C@@H](C)CN([C@H](C)CO)S(=O)(=O)c1ccc(C)cc1 | inactive: 0.995
4 | C[C@@H]1CCCCO[C@H](CN(C)Cc2ccc(C(=O)O)cc2)[C@H](C)CN([C@H](C)CO)C(=O)c2cc(NS(=O)(=O)c3ccc(Cl)cc3)ccc2O1 | inactive: 1.01
5 | C[C@H]1CCCCO[C@@H](CN(C)CC2CCCCC2)[C@@H](C)CN([C@@H](C)CO)C(=O)c2cc(NC(=O)CCC(F)(F)F)ccc2O1 | inactive: 0.996
6 | C[C@@H]1CN([C@@H](C)CO)C(=O)c2cc(-c3cccc(C(=O)N(C)C)c3)cnc2O[C@H]1CN(C)S(=O)(=O)c1cccc(F)c1 | inactive: 0.995
7 | COc1cccc(-c2ccc3c(c2)O[C@H](CN(C)C(=O)C2CCC2)[C@@H](C)CN([C@H](C)CO)S3(=O)=O)c1 | inactive: 1.01
8 | CC(C)NC(=O)N(C)C[C@@H]1Oc2c(NC(=O)C3CCOCC3)cccc2C(=O)N([C@@H](C)CO)C[C@@H]1C | inactive: 1
9 | COCCNC(=O)C[C@H]1CC[C@@H]2[C@H](COC[C@@H](O)CN2S(=O)(=O)c2ccccc2C)O1 | inactive: 1
10 | C[C@@H]1CN([C@H](C)CO)C(=O)c2cc(C#CCc3ccccc3)cnc2O[C@@H]1CN(C)C(=O)C1CCOCC1 | inactive: 0.968
11 | C[C@@H]1CN([C@H](C)CO)C(=O)c2c(c3ccccc3n2C)-c2ccccc2CO[C@H]1CN(C)Cc1ccccc1C(F)(F)F | inactive: 1.06
12 | C[C@H](CO)N1C[C@H](C)[C@@H](CN(C)Cc2ccncc2)Oc2ccc(NC(=O)c3ccncc3)cc2C1=O | inactive: 0.966
13 | C[C@@H]1CN([C@H](C)CO)C(=O)c2cc(NS(=O)(=O)c3cccs3)ccc2O[C@@H]1CN(C)CC1CC1 | inactive: 1.02
14 | C[C@H]1CCCCO[C@H](CN(C)C(=O)Nc2ccc3c(c2)OCO3)[C@@H](C)CN([C@@H](C)CO)C(=O)c2cc(NC(=O)c3ccncc3)ccc2O1 | inactive: 0.997
15 | COC(=O)[C@H](Cc1ccc(-n2cc(CCC(=O)NO)nn2)cc1)N1CC(/C=C/[C@@H](O)Cc2ccccc2)=C[C@@H](C2CC2)O1 | inactive: 1
16 | CC(C)(C)N.CCCC(NC(C)C(=O)N1C(C(=O)O)CC2CCCCC21)C(=O)OCC (configuration not stated) | inactive: 0.948
17 | COc1ccc(NC(=O)Nc2ccc3c(c2)CC(=O)N([C@@H](C)CO)C[C@H](C)[C@H](CN(C)Cc2ccc(-c4ccccc4)cc2)O3)cc1 | inactive: 0.969
